Publication PMC6451091
Several values for one entry are separate records, joined by “and”; a condition that tells them apart may be missing. Equal values may be shown once. The list shows a part of the results. For some assays here: At the low end of the ranking the order means little. For some assays here: Measured with an extract: partners may take part in the binding.

Tests used:
PU.1 (IVT) = PU.1 (IVT) (UniProt P17947); assay: protein-binding microarray (PBM); conditions: 20 mM HEPES pH 7.9, 100 mM NaCl, 1 mM DTT, 0.2 mg/mL BSA, 0.02% Triton X-100, 2% milk, 0.4 mg/mL salmon testes DNA; 1 h; temperature not stated; high values mean tight binding; double strand, one strand shown; sequences stand for … in GCCTAGCAC…GTGCTAGGTCTTGATTCGCTTGACGCTGCTG
[1] = biological target: PU.1 (endogenous, THP-1 nuclear extract) (UniProt P17947); assay: nuclear extract protein-binding microarray (nextPBM); conditions: 20 mM HEPES pH 7.9, 100 mM NaCl, 1 mM DTT, 0.2 mg/mL BSA, 0.02% Triton X-100, 2% milk, 0.4 mg/mL salmon testes DNA; 1 h; temperature not stated; high values mean tight binding; double strand, one strand shown; sequences stand for … in GCCTAGCAC…GTGCTAGGTCTTGATTCGCTTGACGCTGCTG
[2] = biological target: T1, FLI1 (endogenous, THP-1 nuclear extract) (UniProt Q01543); assay: as above; conditions: 20 mM HEPES pH 7.9, 100 mM NaCl, 1 mM DTT, 0.2 mg/mL BSA, 0.02% Triton X-100, 2% milk, 0.4 mg/mL salmon testes DNA; 1 h; temperature not stated; high values mean tight binding; double strand, one strand shown; sequences stand for … in GCCTAGCAC…GTGCTAGGTCTTGATTCGCTTGACGCTGCTG
T1 sequence: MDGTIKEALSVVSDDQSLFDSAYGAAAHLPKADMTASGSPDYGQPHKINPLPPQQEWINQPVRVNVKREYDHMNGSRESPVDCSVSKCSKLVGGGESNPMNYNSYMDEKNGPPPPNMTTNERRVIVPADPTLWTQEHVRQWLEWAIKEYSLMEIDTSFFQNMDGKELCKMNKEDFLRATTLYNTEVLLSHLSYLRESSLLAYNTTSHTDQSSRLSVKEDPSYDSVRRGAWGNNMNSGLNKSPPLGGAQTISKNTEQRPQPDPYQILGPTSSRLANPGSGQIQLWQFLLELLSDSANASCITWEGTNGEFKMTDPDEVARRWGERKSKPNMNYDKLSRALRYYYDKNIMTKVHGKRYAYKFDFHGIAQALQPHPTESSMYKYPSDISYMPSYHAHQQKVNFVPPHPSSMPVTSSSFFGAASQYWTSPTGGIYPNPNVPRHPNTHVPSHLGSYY

[3] = biological target: PU.1 (endogenous, THP-1 nuclear extract) (UniProt P17947); assay: nextPBM; conditions: 20 mM HEPES pH 7.9, 100 mM NaCl, 1 mM DTT, 0.2 mg/mL BSA, 0.02% Triton X-100, 2% milk, 0.4 mg/mL salmon testes DNA, 1 h; temperature not stated; double strand, one strand shown; sequences stand for … in GCCTAGCAC…GTGCTAGGTCTTGATTCGCTTGACGCTGCTG
[4] = biological target: T1, FLI1 (endogenous, THP-1 nuclear extract); assay: nextPBM; conditions: 20 mM HEPES pH 7.9, 100 mM NaCl, 1 mM DTT, 0.2 mg/mL BSA, 0.02% Triton X-100, 2% milk, 0.4 mg/mL salmon testes DNA, 1 h; temperature not stated; double strand, one strand shown; sequences stand for … in GCCTAGCAC…GTGCTAGGTCTTGATTCGCTTGACGCTGCTG
[5] = biological target: T2, IRF8 (endogenous, THP-1 nuclear extract) (UniProt Q02556); assay: nextPBM; conditions: 20 mM HEPES pH 7.9, 100 mM NaCl, 1 mM DTT, 0.2 mg/mL BSA, 0.02% Triton X-100, 2% milk, 0.4 mg/mL salmon testes DNA, 1 h; temperature not stated; double strand, one strand shown; sequences stand for … in GCCTAGCAC…GTGCTAGGTCTTGATTCGCTTGACGCTGCTG
T2 sequence: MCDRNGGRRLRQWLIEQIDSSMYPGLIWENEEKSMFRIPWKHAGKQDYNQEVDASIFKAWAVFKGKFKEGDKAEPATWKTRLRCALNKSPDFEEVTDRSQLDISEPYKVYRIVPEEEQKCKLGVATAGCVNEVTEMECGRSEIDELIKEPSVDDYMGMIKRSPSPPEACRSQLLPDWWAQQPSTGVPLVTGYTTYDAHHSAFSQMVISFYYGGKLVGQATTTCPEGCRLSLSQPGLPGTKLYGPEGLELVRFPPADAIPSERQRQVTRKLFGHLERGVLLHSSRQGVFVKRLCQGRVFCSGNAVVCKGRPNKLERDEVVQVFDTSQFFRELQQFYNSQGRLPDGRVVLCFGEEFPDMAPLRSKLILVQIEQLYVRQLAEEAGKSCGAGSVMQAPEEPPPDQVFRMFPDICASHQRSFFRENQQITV

| Sequence | binding signal (PU.1 (IVT)) | binding signal [1] | binding signal [2] | binding signal [3] | binding signal [4] | binding signal [5] |
| --- | --- | --- | --- | --- | --- | --- |
| GACAAGAGGAACTGCATTCT | 3.12 z-score | 3.05 z-score | 0.873 z-score |  |  |  |
| GAAGAGAGGAAGTGAAATTA | 5.03 z-score | 5.05 z-score | 3.29 z-score | 5.33 z-score |  |  |
| GAAAACAGGAAGTGGACAAC |  |  | 5.2 z-score | 7.79 z-score |  |  |
| TCCAGGAGGAACTACTGTGT | 2.59 z-score | 2.62 z-score | 1.04 z-score |  |  |  |
| CGAAAGAGGAAGTGCAACCA | 7.64 z-score | 7.07 z-score | 4.31 z-score |  |  |  |
| GGAGAGAGGAAGTAACAAGT | 4.91 z-score | 5.26 z-score | 2.69 z-score |  |  |  |
| ACAAAAAGGAACTGGGCCCC | 1.42 z-score | 1.96 z-score | 0.58 z-score |  |  |  |
| AATATAGGGAAGTGCTTAAC | 5.82 z-score | 5.84 z-score | 2.15 z-score | 5.78 z-score | 2.15 z-score |  |
| TGAAGGAGGAAGTGGACTGA | 5.4 z-score | 5.86 z-score | 2.83 z-score |  |  |  |
| CAAATGAGGAACCGATGCGG | 4.69 z-score | 5.43 z-score | 0.985 z-score |  |  |  |
| AGAAAAAGGAAGTGGGTATG | 6.21 z-score | 6.18 z-score | 3.27 z-score |  |  |  |
| AGGAGGAGGAAGTGGGGGGA | 4.05 z-score | 4.59 z-score | 2.67 z-score |  |  |  |
| ATTTTAAGGAAGTGAAACCC | 5.72 z-score |  | 3.2 z-score | 7.89 z-score and 5.37 z-score and 5.61 z-score | 3.2 z-score |  |
| TCATTAGGGAAGTGAAGCCC | 3.63 z-score | 4.07 z-score | 1.34 z-score |  |  |  |
| TGGAAGAGGAAGTGGCACTG | 5.78 z-score | 6.56 z-score | 3.4 z-score |  |  |  |
| GAAAAGAGGAAGTGGAAACA |  |  | 4.09 z-score | 8.74 z-score |  |  |
| AAAAAAAGGAACTGGAAAGC | 4.54 z-score | 4.2 z-score | 1.64 z-score |  |  |  |
| GAAAAGAGGAAGTCAGATTG |  |  | 3.77 z-score | 8.66 z-score |  | 0.241 z-score |
| TTTTTGAGGAACTGCCAGAC | 3.81 z-score | 4.2 z-score | 1.13 z-score |  |  |  |
| GATAAGAAGAAGTCCTCTGT | 1.12 z-score | 1.17 z-score | -0.095 z-score |  |  |  |
| AAAAGGAGGAAGTCCTTGCC | 6.56 z-score | 6.7 z-score | 2.78 z-score |  |  |  |
